Results from PubChem BioAssay AID1347165 (National Center for Advancing Translational Sciences (NCATS), 2019).
About 5,700 (2.6%) of roughly 220,000 compounds were called active. The shares of active, inactive and inconclusive entries below differ from those in the screen. Calls come from the whole dose curve; as a rule, active = well fitted inhibition curve with a large enough effect; inconclusive = small, poorly fitted or top-dose-only effect; inactive = no such curve, though single readings can be large or run the other way. Potencies of inconclusive entries are doubtful fits and often do not repeat.

Molecular target: Lysine-specific demethylase 5B (Homo sapiens) (UniProt Q9UGL1)
Sequence of UniProt Q9UGL1 (Q9UGL1 whole entry, looked up): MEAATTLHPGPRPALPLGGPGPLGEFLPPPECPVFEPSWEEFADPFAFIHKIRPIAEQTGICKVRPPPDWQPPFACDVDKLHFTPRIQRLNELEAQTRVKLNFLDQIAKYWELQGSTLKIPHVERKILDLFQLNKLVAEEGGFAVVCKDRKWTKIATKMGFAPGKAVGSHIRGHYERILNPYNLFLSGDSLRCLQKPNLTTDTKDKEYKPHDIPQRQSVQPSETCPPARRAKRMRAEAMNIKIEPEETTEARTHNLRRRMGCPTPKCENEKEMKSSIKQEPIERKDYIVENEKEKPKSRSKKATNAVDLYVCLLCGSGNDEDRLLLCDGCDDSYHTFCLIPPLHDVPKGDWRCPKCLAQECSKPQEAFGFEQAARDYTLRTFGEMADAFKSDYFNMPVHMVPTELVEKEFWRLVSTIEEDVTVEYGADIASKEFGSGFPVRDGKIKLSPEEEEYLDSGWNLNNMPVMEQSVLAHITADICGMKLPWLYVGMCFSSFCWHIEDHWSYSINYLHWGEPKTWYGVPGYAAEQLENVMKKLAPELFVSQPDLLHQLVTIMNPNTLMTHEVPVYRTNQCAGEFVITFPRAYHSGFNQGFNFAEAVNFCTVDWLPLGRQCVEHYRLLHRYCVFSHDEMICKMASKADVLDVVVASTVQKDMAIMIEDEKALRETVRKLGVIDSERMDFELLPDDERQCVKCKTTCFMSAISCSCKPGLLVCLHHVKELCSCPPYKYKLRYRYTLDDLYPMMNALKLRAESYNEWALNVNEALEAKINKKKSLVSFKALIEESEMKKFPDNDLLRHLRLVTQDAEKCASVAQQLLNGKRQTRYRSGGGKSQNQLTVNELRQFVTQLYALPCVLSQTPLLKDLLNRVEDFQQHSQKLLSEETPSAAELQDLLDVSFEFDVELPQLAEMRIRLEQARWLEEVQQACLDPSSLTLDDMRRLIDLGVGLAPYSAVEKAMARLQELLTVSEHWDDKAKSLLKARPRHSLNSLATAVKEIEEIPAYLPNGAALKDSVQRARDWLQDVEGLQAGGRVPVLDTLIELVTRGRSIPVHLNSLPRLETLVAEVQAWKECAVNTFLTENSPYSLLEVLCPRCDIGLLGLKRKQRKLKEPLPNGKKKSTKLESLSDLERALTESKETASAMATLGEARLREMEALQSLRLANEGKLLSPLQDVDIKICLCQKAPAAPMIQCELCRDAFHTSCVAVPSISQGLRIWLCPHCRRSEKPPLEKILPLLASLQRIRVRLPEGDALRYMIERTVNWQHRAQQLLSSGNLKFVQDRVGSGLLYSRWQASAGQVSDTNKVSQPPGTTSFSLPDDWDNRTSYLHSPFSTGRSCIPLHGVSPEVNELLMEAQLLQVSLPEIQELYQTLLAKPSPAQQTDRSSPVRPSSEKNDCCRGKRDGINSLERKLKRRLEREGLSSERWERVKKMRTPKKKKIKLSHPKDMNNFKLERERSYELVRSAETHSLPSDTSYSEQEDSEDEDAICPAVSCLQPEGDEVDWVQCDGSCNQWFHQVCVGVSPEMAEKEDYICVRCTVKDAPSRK
Assay: Primary screen for KDM5B Histone Demethylases FDH-coupled qHTS; note: nearly all actives have a fitted effect of over 70% in size; for activity change, negative = inhibition: 0% is about no effect
Conditions: FDH-coupled NADH fluorescence (FDH is formaldehyde dehydrogenase); activity change, negative = inhibition: at 57.7 µM (top of the series) unless noted
Summary of the method: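 Compound dilutions met 200 nM (final) KDM5BΔAP for 10 min at room temperature before substrate addition. The substrate mix held 12.5 µM H3K4me3 with cofactors 25 µM α-ketoglutarate and 50 µM Fe²⁺. NADH signal gain over 30 min defined activity.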
Potency is the fitted concentration of half-maximal effect; tags give direction and shape of the fitted curve.

SMILES | Potency | activity change, negative = inhibition
O=C(Cn1ccc2cc(S(=O)(=O)N3CCCCC3)ccc21)NCc1ccccc1Cl | inconclusive: 35.5 µM [inhibitor, partial curve, poor fit] | –
COc1ccccc1/C=C/c1nc(C#N)c(NCC(C)C)o1 | inconclusive: 15.8 µM [inhibitor, partial curve, poor fit] | –
Cn1c(=O)c2c(c3ccccc31)OC(=O)CC2c1cccc(Cl)c1 (stereo not drawn) | inconclusive: 31.6 µM [inhibitor, partial curve, poor fit] | –
Cc1ccc(CC(=O)N2CCCN(c3cc(-c4ccc(C)c(C)c4)[nH]n3)CC2)cc1 | inconclusive: 12.6 µM [inhibitor, partial curve, poor fit] | –
Cc1nn(C)c(C)c1CN(Cc1cnc(N2CCCCC2)nc1)C1CC1 | inconclusive: 20 µM [inhibitor, single point] | –
Cc1ccc(-c2nc(CCNC(=O)C(=O)Nc3c(C)cccc3C)cs2)cc1 | inconclusive: 11.2 µM [inhibitor, partial curve, poor fit] | –
O=C(NCCCN1CCCC1=O)c1cn2ccnc(-c3ccc(F)cc3)c2n1 | inconclusive: 15.8 µM [inhibitor, single point] | –
Nc1nccnc1C(=O)NCc1ccc(-c2ccc(F)cc2)o1 | inconclusive: 25.1 µM [inhibitor, single point] | –
O=C(NCC1(c2ccccc2)CCCC1)c1ccc(S(=O)(=O)N2CCOCC2)cc1 | – | inactive: 9.63%
CCC(CC)C(=O)NC[C@@H]1C=C(C)[C@H](Cc2nc3ccc(OC)cc3[nH]2)C[C@H]1C(C)C | inconclusive: 35.5 µM [inhibitor, single point] | –
COc1ccc(C)cc1NC(=O)c1nnn(-c2c(C)cccc2C)c1C | inconclusive: 15.8 µM [inhibitor, partial curve, poor fit] | –
CCOC(=O)C1(Cc2cccc(OC)c2)CCCN(C(=O)c2ccc(OC)o2)C1 (stereo not drawn) | – | inactive: -2.59%
COc1ccc(Cl)cc1CN(C)c1cc(C2CC(N)C2)ncn1 (stereo not drawn) | – | inactive: 12.6%
Cc1ccc(NC(=S)NCC(C)(C)N2CCOCC2)cc1C | – | inactive: 8.97%
COc1ccc(-c2noc([C@@H]3Cc4nc[nH]c4CN3C(=O)c3cccs3)n2)cc1 | inconclusive: 28.2 µM [inhibitor, partial curve] | –
CC(C)(CC(=O)O)CC(=O)N[C@H]1C[C@H]2C(=O)Nc3ccc(-c4cccs4)cc3C(=O)N2C1 | inconclusive: 25.1 µM [inhibitor, partial curve, poor fit] | –
COc1ccc(C(=O)N2CC[C@H](CO)[C@H](NC(=O)C3CC3)C2)cn1 | – | inactive: 13.7%
CC(=O)Nc1nnc2n1CCS2 | inconclusive: 20 µM [inhibitor, partial curve, poor fit] | –
O=C1C2=C(Nc3ccccc3SC2c2ccc(O)cc2)c2ccccc21 (stereo not drawn) | inconclusive: 28.2 µM [inhibitor, single point] | –
Cn1c(=O)c2c(-c3ccccc3)n(CCCO)cc2n(C)c1=O | inconclusive: 25.1 µM [inhibitor, single point] | –
O=C(Nc1ccccc1Br)C1CC2CCCC(C1)C2=O (stereo not drawn) | – | inactive: 15%
COc1cc(SC)ccc1C(=O)N[C@@H]1C=C(C(=O)N[C@H](C)C(N)=O)C[C@@H](O)[C@@H]1O | inconclusive: 28.2 µM [inhibitor, partial curve] | –

SMILES | Potency | activity change, negative = inhibition
COc1cc(C2Nc3ccccc3C(=O)N2C2CC2)ccc1O (stereo not drawn) | inconclusive: 28.2 µM [inhibitor, partial curve, poor fit] | –
CCn1c(CN2CCOCC2)nc2cc(NC(=O)c3cccc([N+](=O)[O-])c3)ccc21 | inconclusive: 31.6 µM [inhibitor, partial curve, poor fit] | –
COC(=O)c1cccc(OCC(O)CN(C)C(C)c2cccs2)c1 (stereo not drawn) | – | inactive: 13.4%
CCOc1cccc(-c2nc(C(=O)NCc3ccc4c(c3)OCO4)cs2)c1 | active: 25.1 µM | –
CN(C)C(=O)c1ccc(OC2CCN(C(=O)c3cccs3)CC2)nc1 | – | inactive: -18%
Cn1cnc2c1c(=O)n(CCCSCc1c(F)cccc1Cl)c(=O)n2C | – | inactive: -2.02%
Cc1cc(C)nc(N2CCN(C(=O)C3CCN(CC(N)=O)CC3)CC2)n1 | active: 28.2 µM | –
Cc1ncc2n1C(=O)N(C1CCN(Cc3ccc(OC(F)(F)F)cc3)CC1)C2 | – | inactive: -27.6%
O=C(/C(=C\c1ccccc1F)c1nc2ccccc2o1)c1ccccc1 | inconclusive: 25.1 µM [inhibitor, single point] | –
Cc1cccc(CN2CCN(Cn3nc(C)c4ccccc4c3=O)CC2)c1 | – | inactive: 33.6%
Cc1cc(Cn2cc3c4c(cccc42)[C@H](CC(C)C)N[C@H](C(=O)NCc2ccco2)C3)no1 | inconclusive: 31.6 µM [inhibitor, single point] | –
CCN(c1ccccc1C)S(=O)(=O)c1nnc(NC(=O)c2ccccc2C)s1 | inconclusive: 44.7 µM [inhibitor, single point] | –
O=C(C1CCc2nnc(-c3ccc(Cl)cc3Cl)n21)N1CCN(c2ncccn2)CC1 (stereo not drawn) | inconclusive: 56.2 µM [inhibitor, partial curve, poor fit] | –
Cc1nnc2n1CCC(NC(=O)c1cnco1)CC2 (stereo not drawn) | – | inactive: 17.2%
CCC(CC)NC(=O)Cc1cccs1 | – | inactive: -6.96%
Cc1ccc(-c2c(C(=O)O)sc3c2cnc2ccc(C)cc23)cc1 | – | inactive: 12.2%
COCC(=O)NC1CCC12CCN(Cc1ccccn1)CC2 (stereo not drawn) | inconclusive: 28.2 µM [inhibitor, partial curve, poor fit] | –
O=C1CC(c2c(F)cccc2Cl)c2c(ccc3ccccc23)N1 (stereo not drawn) | inconclusive: 39.8 µM [inhibitor, single point] | –
CCc1ccc(C(=O)N2CCCN(c3nnc4ccccn34)CC2)cc1 | active: 25.1 µM | –
COc1cccc(NC(=O)CSC2=C(C#N)C(c3ccccc3C)C3=C(CCCC3=O)N2)c1 (stereo not drawn) | inconclusive: 22.4 µM [inhibitor, partial curve, poor fit] | –
O=C(CCS(=O)(=O)c1nc(-c2ccc3c(c2)OCO3)cc(C(F)(F)F)n1)Nc1ccc(Br)cc1 | inconclusive: 39.8 µM [inhibitor, partial curve, poor fit] | –
